Our source for the binding values is article PMC7139218, “Structural Basis for Rab8a Recruitment of RILPL2 via LRRK2 Phosphorylation of Switch 2” (Structure(London, England:1993), 2020).

Protein sequences, listed by entry. Tags and fused reporters are not part of them. Lines headed by an entry give the natural chain unless they say otherwise; changes in a name come on top. Chains listed by the source or under a name are the forms on record and can include a tag or linker. Residues count along the entry.
UniProt Q99104, residues 1462-1853: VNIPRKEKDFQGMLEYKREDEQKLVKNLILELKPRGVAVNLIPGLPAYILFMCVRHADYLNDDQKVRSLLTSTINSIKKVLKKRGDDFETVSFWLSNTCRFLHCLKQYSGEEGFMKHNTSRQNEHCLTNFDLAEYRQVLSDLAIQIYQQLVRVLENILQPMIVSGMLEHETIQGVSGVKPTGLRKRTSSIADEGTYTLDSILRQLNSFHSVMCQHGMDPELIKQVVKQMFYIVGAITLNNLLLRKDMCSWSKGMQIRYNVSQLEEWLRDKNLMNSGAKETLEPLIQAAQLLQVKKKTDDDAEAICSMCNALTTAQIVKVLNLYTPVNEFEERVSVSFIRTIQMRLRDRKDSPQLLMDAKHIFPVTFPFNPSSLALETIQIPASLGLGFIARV
UniProt P61006: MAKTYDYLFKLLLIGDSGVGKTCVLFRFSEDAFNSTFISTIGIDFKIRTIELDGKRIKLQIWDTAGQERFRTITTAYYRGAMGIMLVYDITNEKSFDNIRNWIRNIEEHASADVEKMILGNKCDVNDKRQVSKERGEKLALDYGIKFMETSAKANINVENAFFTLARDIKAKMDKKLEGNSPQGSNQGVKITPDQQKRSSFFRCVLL
non-phosphorylated Rab8a(GTP), residues 1-181, Q67L (P61006, form named): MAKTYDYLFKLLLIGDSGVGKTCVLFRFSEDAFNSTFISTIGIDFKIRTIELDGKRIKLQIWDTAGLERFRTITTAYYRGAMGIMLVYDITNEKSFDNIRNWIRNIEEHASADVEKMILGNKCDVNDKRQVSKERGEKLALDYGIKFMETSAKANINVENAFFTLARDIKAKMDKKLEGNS
UniProt P61026: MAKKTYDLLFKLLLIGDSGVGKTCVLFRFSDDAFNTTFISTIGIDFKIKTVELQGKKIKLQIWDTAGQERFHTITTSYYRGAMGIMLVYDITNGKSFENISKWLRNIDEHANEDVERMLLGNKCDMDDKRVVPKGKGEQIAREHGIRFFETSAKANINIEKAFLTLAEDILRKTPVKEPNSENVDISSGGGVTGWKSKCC

Assay [1] deals with T1, RILPL2-GFP WT (full length) (human) (UniProt Q969X0).
T1 sequence: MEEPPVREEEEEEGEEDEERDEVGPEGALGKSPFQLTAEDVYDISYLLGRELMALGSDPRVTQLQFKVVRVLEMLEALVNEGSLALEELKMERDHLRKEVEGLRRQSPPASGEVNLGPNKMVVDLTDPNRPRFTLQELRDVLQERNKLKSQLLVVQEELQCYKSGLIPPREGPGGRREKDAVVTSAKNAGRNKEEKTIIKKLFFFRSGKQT
Nature of the assay: co-IP; HEK293 cells co-expressing Flag-LRRK2 (R1441G or Y1699C), HA-Rab and GFP-tagged effector, no MLi-2; GFP fusion precipitated with GFP binder Sepharose, 1 h, washed in 50 mM Tris-HCl pH 7.5, 150 mM NaCl; immunoblot. In general terms: A western blot detects proteins with antibodies after separation by electrophoresis.

The target of assay [2] is T2, JIP3-GFP (full length) (UniProt Q9UPT6).
T2 sequence: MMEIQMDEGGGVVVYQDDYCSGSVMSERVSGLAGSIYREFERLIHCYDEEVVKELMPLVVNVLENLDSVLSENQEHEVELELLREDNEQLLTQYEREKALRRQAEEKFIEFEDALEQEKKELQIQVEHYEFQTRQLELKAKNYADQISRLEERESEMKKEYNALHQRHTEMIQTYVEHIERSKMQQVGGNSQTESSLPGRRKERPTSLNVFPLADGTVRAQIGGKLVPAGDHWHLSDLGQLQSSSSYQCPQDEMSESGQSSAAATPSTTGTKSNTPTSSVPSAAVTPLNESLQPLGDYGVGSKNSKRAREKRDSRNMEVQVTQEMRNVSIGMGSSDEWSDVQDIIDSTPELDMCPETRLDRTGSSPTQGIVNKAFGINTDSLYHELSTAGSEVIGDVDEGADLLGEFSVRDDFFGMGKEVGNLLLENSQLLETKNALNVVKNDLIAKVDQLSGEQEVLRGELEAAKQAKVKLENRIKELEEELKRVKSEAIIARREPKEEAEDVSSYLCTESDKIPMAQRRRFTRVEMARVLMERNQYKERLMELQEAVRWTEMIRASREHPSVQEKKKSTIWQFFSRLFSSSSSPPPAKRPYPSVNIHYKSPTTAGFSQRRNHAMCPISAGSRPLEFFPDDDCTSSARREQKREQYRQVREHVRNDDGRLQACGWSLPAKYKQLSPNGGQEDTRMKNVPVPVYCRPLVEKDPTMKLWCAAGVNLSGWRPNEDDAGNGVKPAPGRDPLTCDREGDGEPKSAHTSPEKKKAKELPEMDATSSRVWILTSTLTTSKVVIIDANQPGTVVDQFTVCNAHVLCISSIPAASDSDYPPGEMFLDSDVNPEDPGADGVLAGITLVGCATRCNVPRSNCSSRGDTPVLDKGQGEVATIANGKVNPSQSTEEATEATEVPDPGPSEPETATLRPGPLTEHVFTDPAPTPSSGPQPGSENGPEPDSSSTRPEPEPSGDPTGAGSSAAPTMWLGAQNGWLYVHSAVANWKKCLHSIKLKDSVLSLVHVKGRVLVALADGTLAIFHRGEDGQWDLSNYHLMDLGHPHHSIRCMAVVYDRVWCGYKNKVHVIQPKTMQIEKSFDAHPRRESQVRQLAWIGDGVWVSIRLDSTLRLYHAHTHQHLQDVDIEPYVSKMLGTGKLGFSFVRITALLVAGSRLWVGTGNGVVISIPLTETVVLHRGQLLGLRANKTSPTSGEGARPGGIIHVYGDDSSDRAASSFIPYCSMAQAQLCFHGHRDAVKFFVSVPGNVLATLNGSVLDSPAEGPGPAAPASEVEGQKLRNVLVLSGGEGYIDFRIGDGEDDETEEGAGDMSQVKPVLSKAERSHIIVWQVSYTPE
The assay is described as follows: co-IP; as a7, but cells treated with the LRRK2 inhibitor MLi-2 (100 nM) for 90 min before lysis.

The target of assay [3] is T3, JIP4-GFP (full length) (UniProt O60271).
T3 sequence: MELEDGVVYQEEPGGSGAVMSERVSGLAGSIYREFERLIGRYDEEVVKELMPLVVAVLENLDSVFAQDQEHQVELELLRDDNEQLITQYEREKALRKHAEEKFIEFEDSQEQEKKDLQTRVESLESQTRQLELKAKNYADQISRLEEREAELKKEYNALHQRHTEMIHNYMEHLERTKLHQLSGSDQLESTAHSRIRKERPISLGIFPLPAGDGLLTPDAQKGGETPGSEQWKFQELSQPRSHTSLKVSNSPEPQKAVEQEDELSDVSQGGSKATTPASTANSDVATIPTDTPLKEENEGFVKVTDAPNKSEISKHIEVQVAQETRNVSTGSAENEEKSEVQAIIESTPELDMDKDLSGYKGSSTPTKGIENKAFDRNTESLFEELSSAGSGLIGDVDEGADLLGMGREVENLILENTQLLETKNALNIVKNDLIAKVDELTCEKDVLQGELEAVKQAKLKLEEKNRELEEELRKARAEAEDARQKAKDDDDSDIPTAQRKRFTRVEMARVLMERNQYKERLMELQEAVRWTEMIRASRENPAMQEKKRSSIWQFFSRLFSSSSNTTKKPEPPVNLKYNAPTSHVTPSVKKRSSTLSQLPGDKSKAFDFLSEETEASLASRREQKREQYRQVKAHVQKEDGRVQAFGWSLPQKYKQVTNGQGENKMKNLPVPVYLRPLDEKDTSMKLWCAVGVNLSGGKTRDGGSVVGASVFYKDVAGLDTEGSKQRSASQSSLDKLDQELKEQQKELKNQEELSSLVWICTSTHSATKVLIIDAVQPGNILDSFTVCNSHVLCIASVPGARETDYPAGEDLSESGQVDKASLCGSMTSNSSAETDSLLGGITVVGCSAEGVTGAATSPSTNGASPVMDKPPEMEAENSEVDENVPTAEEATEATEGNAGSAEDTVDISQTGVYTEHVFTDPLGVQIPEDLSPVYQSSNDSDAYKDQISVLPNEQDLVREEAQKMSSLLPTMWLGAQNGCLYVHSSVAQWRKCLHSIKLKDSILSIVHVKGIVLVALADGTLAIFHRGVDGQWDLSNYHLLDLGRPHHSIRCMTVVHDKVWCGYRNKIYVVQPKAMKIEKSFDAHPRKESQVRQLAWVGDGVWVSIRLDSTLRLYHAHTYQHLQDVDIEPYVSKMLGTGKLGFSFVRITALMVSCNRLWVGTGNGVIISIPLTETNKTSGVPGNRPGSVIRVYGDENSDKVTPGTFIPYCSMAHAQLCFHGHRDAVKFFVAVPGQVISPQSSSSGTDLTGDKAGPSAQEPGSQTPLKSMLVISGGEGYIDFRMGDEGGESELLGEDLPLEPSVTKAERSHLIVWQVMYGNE
The description is as above.

Assay [4] concerns the target T2, JIP3-GFP (full length). Nature of the assay: co-IP; HEK293 cells co-expressing Flag-LRRK2 (R1441G or Y1699C), HA-Rab and GFP-tagged effector, no MLi-2; GFP fusion precipitated with GFP binder Sepharose, 1 h, washed in 50 mM Tris-HCl pH 7.5, 150 mM NaCl; immunoblot.
Assay [5] concerns the target T3, JIP4-GFP (full length). The description is as above.
In assay [6] the target is T4, His6-tagged RILPL2 (full length, 1-211) (Homo sapiens (Human), UniProt Q969X0).
T4 chain: T1 sequence
Nature of the assay: pull-down; His6-RILPL2 (full length) bait on Ni2+-agarose, untagged Rab8a species as prey, 10 μM each; 20 mM Tris pH 8.0, 300 mM NaCl, 20 mM imidazole, 5 mM MgCl2, 10 mM β-mercaptoethanol; Coomassie stain; both purified.

Assay [7] has as its target His6-tagged MyoVa GTD (1462-1853) (UniProt Q99104). Nature of the assay: pull-down; control: His6-tagged MyoVa GTD bait on Ni2+-agarose, pRab8a or Rab8a prey, no RILPL2; both purified.
Assay [8] deals with T4, His6-tagged RILPL2 (full length, 1-211). Nature of the assay: pull-down; His6-RILPL2 (full length) bait on Ni2+-agarose, (p)Rab8a prey, in the presence of MyoVa(GTD); bait and prey 2.5 μM; 20 mM Tris pH 8.0, 300 mM NaCl, 20 mM imidazole, 5 mM MgCl2; Coomassie stain, densitometry; both purified.

No constants are given. Whether binding was seen depends on the method and setting. For part of these data: In cells and extracts the contact can be indirect. Some entries that bind do so weakly or less than the wild type. For part of these data: Tags and fused reporters may be left off the sequences shown.

Take “HA-Rab8a K58A, LRRK2-phosphorylated (from UniProt P61006 1-207)”: in assay [1], the binding result is “binds”. Still for that read-out and setting: then “HA-Rab8a T4A, LRRK2-phosphorylated (from UniProt P61006 1-207)”, with “binds”. Consider “HA-Rab8a WT from cells treated with the LRRK2 inhibitor MLi-2 (dephosphorylated) (from UniProt P61006 1-207)”, for which the binding result with JIP3-GFP (full length) [2] and with JIP4-GFP (full length) [3] was “binds weakly” throughout. In the case of “HA-Rab8a[Q67L], LRRK2-phosphorylated (from UniProt P61006 1-207)”, the binding entry in assay [1] was “binds”. The same measure, in the same setting: then “HA-Rab8a[T22N] (from UniProt P61006 1-207)”, with “no binding”. Turning to “HA-Rab10 WT, LRRK2-phosphorylated (pT73) (from UniProt P61026 1-200)”, the binding entry with JIP3-GFP (full length) [4] and in the assay with JIP4-GFP (full length) [5] was “binds” in each case. For “T72 phosphorylated Rab8a(GDP), wild type, residues 1-181 (from UniProt P61006 1-181) (domain or fragment)”, the binding result in assay [6] is “no binding (tested: 10 μM)”. For “T72 phosphorylated Rab8a(GTP), residues 1-181, Q67L (from UniProt P61006 1-181) (domain or fragment)”, the binding entry in assay [7] is listed as “no binding”. As for “globular tail domain (GTD) of myosin Va (1462-1853) (from UniProt Q99104 1462-1853) (domain or fragment)”, in assay [8], the binding entry was “binds”.

With “non-phosphorylated Rab8a(GTP), residues 1-181, Q67L (from UniProt P61006 1-181) (domain or fragment)”, the binding result in assay [7] is on record as “no binding”.
